# The supplement of paper PMC8728848
# The list shows a part of the results.
# B1: UEA-I (Ulex europaeus), P22972 (protein)
# chain: SDDLSFKFKNFSQNGKDLSFQGDASVIETGVLQLNKVGNNLPDETGGIARYIAPIHIWNCNTGEVASFITSFSFFMETSANPKAATDGLTFFLAPPDSPLRRAGGYFGLFEDTKDNDSSYQTVAVEFDTIGSPVNFDDPGFPHIGIDVNRVKSINAERWNKRYGLNNVANVEIIYEASSKTLTASLTYPSDQTSISVTSIVDLKEILPEWVSVGFSGGTYIGRQATHEVLNWYFTSNLINTNS
# Columns and labels:
# Experiment in all cases: glycan array binding signal (z-score within array); higher = stronger binding
# Conditions in all cases: glycan notation: IUPAC condensed, linker removed
# [1] = molecular target: Gal(b1-3)GalNAc(b1-3)Gal(a1-4)Gal(b1-4)Glc
# How it was run: (§1)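 Arrays were curated from the Consortium for Functional Glycomics database, 3228 in total, and kept only where the protein sequence was available. Binding is expressed as a within-array Z-score. This score was averaged across arrays of the same protein sequence at different concentrations or buffers and across linkers, and negative values can be read as non-binding.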
# [2] = molecular target: Gal(b1-3)GalNAc(b1-3)Gal(b1-4)Glc
# How it was run: as §1
# [3] = molecular target: Gal(b1-3)GalNAc(b1-3)Gal(b1-4)GlcNAc
# How it was run: as §1
# [4] = molecular target: Gal(b1-3)GalNAc(b1-4)Gal(b1-4)Glc
# How it was run: as §1
# [5] = molecular target: Gal(b1-3)GalNAc(b1-4)[Neu5Ac(a2-3)]Gal(b1-4)Glc
# How it was run: as §1
# Gal(b1-3)GlcNAc = molecular target: Gal(b1-3)GlcNAc
# How it was run: as §1
# [6] = molecular target: Gal(b1-3)GlcNAc(a1-3)Gal(b1-4)GlcNAc
# How it was run: as §1
# [7] = molecular target: Gal(b1-3)GlcNAc(a1-6)Gal(b1-4)GlcNAc
# How it was run: as §1
# Gal(b1-3)GlcNAc(b1-2)Man = molecular target: Gal(b1-3)GlcNAc(b1-2)Man
# How it was run: as §1
# [8] = molecular target: Gal(b1-3)GlcNAc(b1-2)Man(a1-3)[Gal(b1-3)GlcNAc(b1-2)Man(a1-6)]Man(b1-4)GlcNAc(b1-4)GlcNAc
# How it was run: as §1
# [9] = molecular target: Gal(b1-3)GlcNAc(b1-2)Man(a1-3)[Gal(b1-3)GlcNAc(b1-2)Man(a1-6)]Man(b1-4)GlcNAc(b1-4)[Fuc(a1-6)]GlcNAc
# How it was run: as §1
# [10] = molecular target: Gal(b1-3)GlcNAc(b1-2)Man(a1-3)[GlcNAc(b1-4)][Gal(b1-3)GlcNAc(b1-2)Man(a1-6)]Man(b1-4)GlcNAc(b1-4)GlcNAc
# How it was run: as §1
# [11] = molecular target: Gal(b1-3)GlcNAc(b1-2)[Gal(b1-3)GlcNAc(b1-6)]Man(a1-6)[Gal(b1-3)GlcNAc(b1-2)Man(a1-3)]Man(b1-4)GlcNAc(b1-4)GlcNAc
# How it was run: as §1
# [12] = molecular target: Gal(b1-3)GlcNAc(b1-3)Gal(b1-3)GlcNAc
# How it was run: as §1
# [13] = molecular target: Gal(b1-3)GlcNAc(b1-3)Gal(b1-4)Glc
# How it was run: as §1
# [14] = molecular target: Gal(b1-3)GlcNAc(b1-3)Gal(b1-4)GlcNAc
# How it was run: as §1
# [15] = molecular target: Gal(b1-3)GlcNAc(b1-3)Gal(b1-4)GlcNAc(b1-2)Man(a1-3)[Gal(b1-3)GlcNAc(b1-3)Gal(b1-4)GlcNAc(b1-2)Man(a1-6)]Man(b1-4)GlcNAc(b1-4)GlcNAc
# How it was run: as §1
# [16] = molecular target: Gal(b1-3)GlcNAc(b1-3)Gal(b1-4)GlcNAc(b1-2)[Gal(b1-3)GlcNAc(b1-3)Gal(b1-4)GlcNAc(b1-6)]Man(a1-6)[Gal(b1-3)GlcNAc(b1-3)Gal(b1-4)GlcNAc(b1-2)Man(a1-3)]Man(b1-4)GlcNAc(b1-4)[Fuc(a1-6)]GlcNAc
# How it was run: as §1
# [17] = molecular target: Gal(b1-3)GlcNAc(b1-3)Gal(b1-4)GlcNAc(b1-3)Gal(b1-4)GlcNAc(b1-2)[Gal(b1-3)GlcNAc(b1-3)Gal(b1-4)GlcNAc(b1-3)Gal(b1-4)GlcNAc(b1-6)]Man(a1-6)[Gal(b1-3)GlcNAc(b1-3)Gal(b1-4)GlcNAc(b1-3)Gal(b1-4)GlcNAc(b1-2)Man(a1-3)]Man(b1-4)GlcNAc(b1-4)[Fuc(a1-6)]GlcNAc
# How it was run: as §1
# [18] = molecular target: Gal(b1-3)GlcNAc(b1-3)Gal(b1-4)GlcNAc(b1-6)[Gal(b1-3)GlcNAc(b1-3)]Gal(b1-4)Glc
# How it was run: as §1
# [19] = molecular target: Gal(b1-3)GlcNAc(b1-3)Gal(b1-4)[Fuc(a1-3)]GlcNAc
# How it was run: as §1
# [20] = molecular target: Gal(b1-3)GlcNAc(b1-3)Gal(b1-4)[Fuc(a1-3)]GlcNAc(b1-6)[Gal(b1-3)GlcNAc(b1-3)]Gal(b1-4)Glc
# How it was run: as §1
# [21] = molecular target: Gal(b1-3)GlcNAc(b1-3)GalNAc
# How it was run: as §1
# [22] = molecular target: Gal(b1-3)GlcNAc(b1-6)Gal(b1-4)GlcNAc
# How it was run: as §1
# [23] = molecular target: Gal(b1-3)GlcNAc(b1-6)GalNAc
# How it was run: as §1
# [24] = molecular target: Gal(b1-3)GlcNAc(b1-6)[Gal(b1-3)]GalNAc
# How it was run: as §1
# Gal(b1-3)GlcNAc6S = molecular target: Gal(b1-3)GlcNAc6S
# How it was run: as §1
# [25] = molecular target: Gal(b1-3)[Fuc(a1-4)]GlcNAc
# How it was run: as §1
# [26] = molecular target: Gal(b1-3)[Fuc(a1-4)]GlcNAc(b1-2)Man
# How it was run: as §1
# [27] = molecular target: Gal(b1-3)[Fuc(a1-4)]GlcNAc(b1-2)Man(a1-3)[Gal(b1-3)[Fuc(a1-4)]GlcNAc(b1-2)Man(a1-6)]Man(b1-4)GlcNAc(b1-4)[Fuc(a1-6)]GlcNAc
# How it was run: as §1
# [28] = molecular target: Gal(b1-3)[Fuc(a1-4)]GlcNAc(b1-3)Gal(b1-3)[Fuc(a1-4)]GlcNAc
# How it was run: as §1
# [29] = molecular target: Gal(b1-3)[Fuc(a1-4)]GlcNAc(b1-3)Gal(b1-4)GlcNAc
# How it was run: as §1
# [30] = molecular target: Gal(b1-3)[Fuc(a1-4)]GlcNAc(b1-3)Gal(b1-4)[Fuc(a1-3)]GlcNAc
# How it was run: as §1
# [31] = molecular target: Gal(b1-3)[Fuc(a1-4)]GlcNAc(b1-6)GalNAc
# How it was run: as §1
# [32] = molecular target: Gal(b1-3)[GlcNAc(b1-6)]GalNAc
# How it was run: as §1
# [33] = molecular target: Gal(b1-3)[GlcNAc(b1-6)]GlcNAc
# How it was run: as §1
# [34] = molecular target: Gal(b1-3)[Neu5Ac(a2-6)]GalNAc
# How it was run: as §1
# [35] = molecular target: Gal(b1-3)[Neu5Ac(a2-6)]GlcNAc
# How it was run: as §1
binder,measurement,setting,value
B1,glycan array binding signal (z-score),[1],-0.174
same,glycan array binding signal (z-score),[2],-0.373
same,glycan array binding signal (z-score),[3],-0.42
same,glycan array binding signal (z-score),[4],-0.113
same,glycan array binding signal (z-score),[5],-0.207
same,glycan array binding signal (z-score),Gal(b1-3)GlcNAc,-0.179
same,glycan array binding signal (z-score),[6],-0.286
same,glycan array binding signal (z-score),[7],-0.139
same,glycan array binding signal (z-score),Gal(b1-3)GlcNAc(b1-2)Man,-0.121
same,glycan array binding signal (z-score),[8],-0.101
same,glycan array binding signal (z-score),[9],-0.16
same,glycan array binding signal (z-score),[10],-0.116
same,glycan array binding signal (z-score),[11],-0.2
same,glycan array binding signal (z-score),[12],-0.159
same,glycan array binding signal (z-score),[13],-0.198
same,glycan array binding signal (z-score),[14],-0.198
same,glycan array binding signal (z-score),[15],-0.086
same,glycan array binding signal (z-score),[16],-0.109
same,glycan array binding signal (z-score),[17],-0.064
same,glycan array binding signal (z-score),[18],-0.158
same,glycan array binding signal (z-score),[19],-0.174
same,glycan array binding signal (z-score),[20],-0.187
same,glycan array binding signal (z-score),[21],-0.18
same,glycan array binding signal (z-score),[22],-0.253
same,glycan array binding signal (z-score),[23],-0.219
same,glycan array binding signal (z-score),[24],-0.177
same,glycan array binding signal (z-score),Gal(b1-3)GlcNAc6S,-0.29
same,glycan array binding signal (z-score),[25],-0.183
same,glycan array binding signal (z-score),[26],-0.099
same,glycan array binding signal (z-score),[27],-0.002
same,glycan array binding signal (z-score),[28],-0.151
same,glycan array binding signal (z-score),[29],-0.113
same,glycan array binding signal (z-score),[30],-0.199
same,glycan array binding signal (z-score),[31],-0.098
same,glycan array binding signal (z-score),[32],-0.023
same,glycan array binding signal (z-score),[33],-0.576
same,glycan array binding signal (z-score),[34],-0.192
same,glycan array binding signal (z-score),[35],-0.562
